Reference: article PMC4336329 (PLoS ONE, 2015)
The whole screen tested about 310,000 compounds, of which about 2,200 (0.71%) showed an effect of 50% or more. The effect is printed as a negative number. This is one part of the list.

The molecules below were run against human ether-à-go-go-related gene (hERG) potassium channel (human, UniProt Q12809) (assay: primary screen, population patch clamp on CHO cells stably expressing hERG).
Chain of human ether-à-go-go-related gene (hERG) potassium channel (Q12809 whole entry, looked up): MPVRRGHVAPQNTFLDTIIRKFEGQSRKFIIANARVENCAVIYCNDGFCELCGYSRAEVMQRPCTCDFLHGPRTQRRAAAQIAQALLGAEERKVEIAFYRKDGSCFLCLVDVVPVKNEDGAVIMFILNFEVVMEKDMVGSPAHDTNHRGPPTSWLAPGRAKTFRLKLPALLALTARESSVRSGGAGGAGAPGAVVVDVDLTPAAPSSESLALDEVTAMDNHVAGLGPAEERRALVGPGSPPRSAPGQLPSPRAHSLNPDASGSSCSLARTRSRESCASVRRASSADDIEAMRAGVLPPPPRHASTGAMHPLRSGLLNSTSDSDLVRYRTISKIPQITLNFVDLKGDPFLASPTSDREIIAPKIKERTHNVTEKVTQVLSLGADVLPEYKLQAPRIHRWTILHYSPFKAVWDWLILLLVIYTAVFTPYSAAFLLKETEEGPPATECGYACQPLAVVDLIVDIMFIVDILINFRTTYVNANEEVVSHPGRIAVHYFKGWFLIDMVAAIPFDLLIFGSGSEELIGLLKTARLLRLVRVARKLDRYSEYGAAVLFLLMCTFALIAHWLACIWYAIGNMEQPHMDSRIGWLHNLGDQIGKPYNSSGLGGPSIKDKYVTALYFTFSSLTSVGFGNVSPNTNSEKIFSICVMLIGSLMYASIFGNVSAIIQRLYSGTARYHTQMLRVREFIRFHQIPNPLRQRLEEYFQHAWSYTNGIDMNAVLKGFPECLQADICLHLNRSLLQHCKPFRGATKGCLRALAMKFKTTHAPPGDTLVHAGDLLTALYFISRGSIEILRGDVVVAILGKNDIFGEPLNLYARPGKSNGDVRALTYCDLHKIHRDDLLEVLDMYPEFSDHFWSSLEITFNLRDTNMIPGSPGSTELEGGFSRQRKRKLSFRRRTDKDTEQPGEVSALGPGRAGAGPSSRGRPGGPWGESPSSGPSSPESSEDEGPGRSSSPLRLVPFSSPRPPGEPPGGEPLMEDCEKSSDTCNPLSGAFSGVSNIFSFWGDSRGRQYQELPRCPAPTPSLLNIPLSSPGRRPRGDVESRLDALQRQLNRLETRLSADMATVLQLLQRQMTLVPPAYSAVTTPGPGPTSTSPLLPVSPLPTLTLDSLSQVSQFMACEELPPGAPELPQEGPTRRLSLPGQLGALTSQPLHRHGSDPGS

Structure (SMILES)	hERG current change (%, negative = inhibition) at 1uM [%]
O=C(NCCCN1CCCC1=O)c1cccc(S(=O)(=O)N2CCCCC2)c1	7.22
O=C(NCCOc1ccccc1)C1CCC(=O)N(CCCN2CCOCC2)C1 (stereo not shown)	10.8
O=C(CC1OC(=O)c2ccccc21)Nc1cccc(S(=O)(=O)N2CCCCCC2)c1 (stereo not shown)	0.598
Cc1ccc(-c2nn(CCC#N)cc2C=C(C#N)C#N)cc1	9.62
CCN1C(=O)CSc2ccc(C(=O)NCc3ccc(OC)cc3)cc21	4.71
COc1ccc(OC(=O)COc2ccccc2C)cc1	8.54
COc1ccc(CN(C(=O)c2snc(C(N)=O)c2N)C(C(=O)NC2CCCC2)c2cc(OC)ccc2OC)cc1 (stereo not shown)	13.9
Cc1ccc(NC(=O)CCN2CC(C)OC(C)C2)cc1.Cl (stereo not shown)	11.5
CCC(NC(=O)CCC(=O)N1CCN(S(=O)(=O)c2ccc(C)cc2)CC1)c1ccc(C)cc1 (stereo not shown)	6.42
O=C(c1cc(Br)c(Br)s1)N1CCN(C/C=C/c2ccccc2)CC1	14.1
O=C(Nc1ccccc1)c1cccc2c(Br)cccc12	13.2
O=C(O)c1cccc(OCCN2CCCC2=O)c1	15.9
S=C(Nc1ccc2nc(-c3ccccn3)c(-c3ccccn3)nc2c1)N1CCOCC1	3.02
O=C(OCC(=O)N(CCc1ccccc1)Cc1ccccc1)c1cc(S(=O)(=O)N2CCOCC2)ccc1F	2.62
Cc1ccc2nc(SCc3nc4cc(Cl)ccc4c(=O)[nH]3)[nH]c2c1	1.02
COC(=O)c1ccc(NC(=S)NC(=O)c2c(-c3ccccc3)noc2C)cc1	18
CCCCOc1cc(CC2CNC(=O)N2)ccc1OC (stereo not shown)	9.58
O=C(Nc1ccccc1)OCCOc1ccccc1	-0.74
Cc1ccccc1COc1cccc(/C=N/NC(=O)c2nnn(-c3nonc3N)c2C)c1	20.5
Cc1ccc(OC(=O)c2c(C)nn(-c3ccccc3)c2C)cc1	-1.64
O=C(NCCc1cccs1)C1CCC(=O)N(CCc2cccc(F)c2)C1 (stereo not shown)	-5.11
O=C1C2C3C=CC(C3)C2C(=O)N1CNc1ccccn1 (stereo not shown)	0.339

Structure (SMILES)	hERG current change (%, negative = inhibition) at 1uM [%]
N#CC1(NC(=O)COC(=O)c2ccccc2SCC(=O)N2CCCC2)CCCCC1	12.6
C=C(C(=O)c1ccccc1)C(c1ccccc1)C(C)C(=O)c1ccccc1 (stereo not shown)	6.46
COc1ccc(/C=C2\C(=O)NC(=S)N2C(=O)c2ccc(F)cc2)cc1	11.1
COc1ccc(OC)c(NC(=O)NNC(=O)CCCOc2ccc(Cl)cc2C)c1	4.94
CC(=O)c1cccc(S(=O)(=O)NCCC(=O)Nc2ccc(S(N)(=O)=O)cc2)c1	11.1
O=C(Nc1ccc(-c2nnc3n2CCCCC3)cc1)c1ccco1	14.5
COCc1c(Br)c(C)nc(OCC(=O)N/N=C/c2ccco2)c1C#N	-7.24
O=C(N/N=C/c1cc([N+](=O)[O-])ccc1Cl)c1cnccn1	9.5
NC(=O)c1c(C(F)(F)F)cc(-c2ccccc2)nc1NCCO	9.18
Cc1nc(NC(=O)CCCC(=O)Nc2nc(C)c(C)s2)sc1C	3.78
CC(NC(=O)c1cccc(S(=O)(=O)N2CCCCCC2)c1)c1ccccc1 (stereo not shown)	0.0736
Cc1c(C(=O)O)oc2ccc(S(=O)(=O)NCc3ccccc3)cc12	5.85
Cc1noc(C)c1C(=O)Nc1nc(-c2cccs2)cs1	-0.374
COc1cccc(/C=N/NC(=S)NC2CC3CCC2C3)c1OC (stereo not shown)	9.13
CC(C)C[C@H](NC(=O)c1[nH]cnc1C(=O)N[C@H](C)c1ccccc1)C(=O)OC(C)(C)C	3.26
COC(=O)c1cc(OC)c(OC)cc1NC(=O)CN1CCCCC1	2.74
COc1c(C)cccc1C(=O)Nc1ccc(N2CCN(S(C)(=O)=O)CC2)cc1	4.86
COc1ccc(C(=O)Nc2cc(C(=O)NCCc3ccccc3)ccc2Cl)cc1	7.17
CSc1nsc(SCC(=O)Nc2nc3ccc(C)cc3s2)n1	18.9
COc1ccc(CCNC(=O)CSc2nc(-c3ccc(OC)c(OC)c3)ccc2C#N)cc1	-0.368
NC(=S)NNC(=O)c1cc(C(F)(F)F)cc(C(F)(F)F)c1	14.5
O=C(Nc1ccccc1)C1=C[C@H](c2ccccc2)C[C@H](OCCCCO)O1	12.7

Structure (SMILES)	hERG current change (%, negative = inhibition) at 1uM [%]
O=CN1CCN(C(=O)COc2ccc(Cl)cc2Br)CC1	-0.456
COc1cccc(Nc2cc(C)nc3ccccc23)c1	-65.2
C/C(=N\NC(=O)c1cccc(C)c1)c1ccc(N2CCOCC2)cc1	5.04
C=C(C(=O)O)C(CCCCCC)C(=O)O (stereo not shown)	6.49
O=C(COC(=O)CCc1nc2ccccc2c(=O)[nH]1)NCc1ccc(F)cc1	12.8
Cn1c(SCC(=O)NCCN2C(=O)CSC2=O)nc2ccccc2c1=O	7.27
O=C(Nc1ccccc1N1CCN(c2ccc(F)cc2)CC1)c1ccccc1	3.5
O=C(CCN1CCCCC1)N/N=C/c1ccc(Br)cc1	-37.1
Cc1ccc(S(=O)(=O)Nc2ccc3cn[nH]c3c2)c(C)c1	7.58
CCN(CC)CCN(C(=O)CCS(=O)(=O)c1ccccc1)c1nc2cc(C)cc(C)c2s1.Cl	4.45
CCn1c(CSc2nc3ccccc3s2)nnc1SCC(=O)c1ccc(O)c(O)c1	22.4
COc1cccc(C(=O)NC2CCN(CC(=O)Nc3ccccc3Cl)CC2)c1	-0.821
COc1ccc(C2C(C(=O)OC3CCCCC3)=C(C)Nc3nnnn32)c(OC)c1OC (stereo not shown)	-1.92
O=C(NN=C1CCCCCC1)c1ccc(Br)o1	18.8
COc1ccc(CN2CCN(c3cc(C)nc4c5c(C)cc(C)nc5nn34)CC2)cc1F	-7.22
N#Cc1cccc(NCC(=O)Nc2ccc3c(c2)OCCO3)c1	13.1
O=C(C[n+]1cc(Br)cc(Br)c1)c1ccc(-c2ccccc2)cc1.[Br-]	8.91
Cc1ccc(NC(=O)CCc2nc(-c3cccs3)no2)c(Br)c1	9.09
COc1ccccc1C(=O)N/N=C/c1ccc(Cl)s1	1.11
CC(O)(CS(=O)(=O)c1cccc(C(F)(F)F)c1)C(=O)Nc1cccc(C(F)(F)F)c1 (stereo not shown)	-7.03
COC(=O)C1=C[C@@H](C(=O)OC)[C@@H]2C3=C(C(=O)[C@@]2(C)NC(=O)c2ccccc2)[C@H](c2ccccc2)[C@@H]2C(=O)NC(=O)[C@@H]2[C@@H]3C1	4.37
O=C(CN(CC1CCCO1)S(=O)(=O)c1ccc(S(=O)(=O)NCC2CCCO2)cc1)Nc1ccccc1 (stereo not shown)	-11.9

Structure (SMILES)	hERG current change (%, negative = inhibition) at 1uM [%]
O=C(c1ccc(Br)o1)N(c1ccc(Br)cc1)C1C=CS(=O)(=O)C1 (stereo not shown)	-9.01
Cn1c(=NC(=O)c2ccco2)sc2ccccc21	2.78
COCCCNC(=S)NNC(=S)Nc1ccc(F)cc1F	21.1
CCn1cc(CCC(=O)O)c(C)n1	8.81
CN(Cc1ccccc1)C(=O)c1ccccc1NC(=O)c1ccco1	17.5
Cc1cc(=O)oc2cc(OCC3CC(c4ccccc4Cl)=NO3)ccc12 (stereo not shown)	-1.89
C/C(=N\Nc1ccc(Cl)cc1)c1ccncc1.Cl	5.64
CCc1cc2c(=O)c(-n3cnc4ccccc43)coc2cc1O	-1.87
O=C(CCC(=O)N1CCN(c2ccccc2F)CC1)N1CCN(c2ccc(F)cc2)CC1	-21.2
C=C(C)CSc1nc2ccccc2[nH]1	11.4
CCOc1ccc(OCCn2c(=S)[nH]c3ccccc32)cc1	17.8
COc1cc(S(=O)(=O)N(C)C)ccc1F	26
CCCCN(Cc1ccco1)C(=O)Cn1ncc2c(=O)oc3ccc(C)cc3c21	12.7
CC1CCN(CC(=O)Nc2ccc(C(=O)N3CCCCC3)cc2)CC1.O=C(O)C(=O)O	11.3
CC12CCC(=O)N1C(C(=O)OCC(=O)Nc1ccc(C(F)(F)F)cc1)CS2 (stereo not shown)	7.73
O=C(O)c1ccccc1C(=O)c1ccc(N2CCCC2)c([N+](=O)[O-])c1	14.3
O=C(Cc1ccccc1)N1CCN(C(=O)c2cccs2)CC1	4.21
Cc1cc2c(cc1C)C(c1ccsc1)CC(=O)N2 (stereo not shown)	9.06
CCOC(=O)C1(CCc2ccccc2)CCN(C(=O)CN2CCOC2=O)CC1	13.2
COc1ccc(C)cc1N(C)C(=O)c1coc(=O)c2ccccc12	11.5
COc1ccc(NC(=O)c2cc(-c3cccs3)on2)cc1	12.7
O=C(CC1C(=O)NCCN1C(=O)c1ccc(F)cc1)OCc1ccccc1 (stereo not shown)	10.1
